A collection of fitness landscapes (doi:10.1016/j.celrep.2020.107928)
The full ranking holds about 81,000 sequences; the median of “one-hybrid fitness for binding NBS DNA” is about -0.1, and the highest 2% start at about 0.36. Some of the results follow.

B1: Caulobacter ParB omega fusion; a variant is named by its letters at X, in order, B8GW30 (parent)
chain: MESVVVGEPGMSEGRRGLGRGLSALLGEVDAAPAQAPGEQLGGSREAPIEILQRNPDQPRRTFREEDLEDLSNSIREKGVLQPILVRPSPDTAGEYQIVAGERAWRAAQRAGLKTVPIMVRELDDLAVLEIGIIENVQRADLNVLEEALSYKVLMEKFERTQENIAQTIGKSXSHVANXMRLLXLPDEVQSYLVSGELTAXHARAIAAAADPVALAKQIIEGGLSVRETEALARKAPNLSAGKSKGGRPPRVKDTDTQALESDLSSVLGLDVSIDHRGSTGTLTITYATLEQLDDLCNRLTRGI

Variants of: B1
Experiment: one-hybrid fitness for binding NBS DNA (the Noc-binding site; scaled: cognate 1, non-cognate 0); higher = stronger binding
Details: with NBS DNA site
Method in brief: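 Bacterial one-hybrid selection in E. coli USO rpoZ- hisB- pyrF- with a HIS3 reporter carrying the site 19 bp from the promoter, screening Caulobacter ParB libraries with four specificity codons randomised (NNS). Cells grew 48 hours at 37°C on M9-minus-histidine plus 0.1 mM IPTG and 5 mM 3-AT. Plasmids before and after selection were Illumina-sequenced, three replicate libraries pooled, and variants under 10 reads dropped. Fitness is the log change in variant-to-wild-type read ratio, rescaled to cognate 1, non-cognate 0.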

| Variant | one-hybrid fitness for binding NBS DNA |
| --- | --- |
| QLQM | ≤ 0.2 |
| QVNS | 0.377 |
| CTYT | ≤ 0.2 |
| WHPE | ≤ 0.2 |
| IDWR | ≤ 0.2 |
| RKCN | ≤ 0.2 |
| NACR | ≤ 0.2 |
| HSCL | ≤ 0.2 |
| IMSS | ≤ 0.2 |
| LDKY | ≤ 0.2 |
| RCTH | 0.237 |
| DGKC | ≤ 0.2 |
| KWLC | ≤ 0.2 |
| FWQG | ≤ 0.2 |
| KLQV | ≤ 0.2 |
| GRHY | ≤ 0.2 |
| CDMC | ≤ 0.2 |
| KGIV | ≤ 0.2 |
| LWIG | ≤ 0.2 |
| STGI | ≤ 0.2 |
| GIHR | ≤ 0.2 |
| ISDW | ≤ 0.2 |
| TKMW | ≤ 0.2 |
| NPTS | ≤ 0.2 |

| Variant | one-hybrid fitness for binding NBS DNA |
| --- | --- |
| YQQS | ≤ 0.2 |
| WWRT | ≤ 0.2 |
| KSPN | ≤ 0.2 |
| RKCK | ≤ 0.2 |
| QQKE | 0.335 |
| NSRT | ≤ 0.2 |
| HGGT | ≤ 0.2 |
| RLIE | ≤ 0.2 |
| SESS | ≤ 0.2 |
| KMAF | 0.358 |
| RIPV | ≤ 0.2 |
| SSVN | ≤ 0.2 |
| KHTA | ≤ 0.2 |
| TDNG | ≤ 0.2 |
| SDYC | ≤ 0.2 |
| GTAA | ≤ 0.2 |
| PTTV | ≤ 0.2 |
| PPGE | ≤ 0.2 |
| NVPW | ≤ 0.2 |
| SMCF | ≤ 0.2 |
| ISLN | ≤ 0.2 |
| NWKT | ≤ 0.2 |
| LTIS | ≤ 0.2 |
| WTRS | ≤ 0.2 |

| Variant | one-hybrid fitness for binding NBS DNA |
| --- | --- |
| SDTY | ≤ 0.2 |
| TRWC | ≤ 0.2 |
| AIEC | ≤ 0.2 |
| RVLT | 0.302 |
| YYCC | ≤ 0.2 |
| FYDV | ≤ 0.2 |
| ACVN | ≤ 0.2 |
| YDCG | ≤ 0.2 |
| IRYT | ≤ 0.2 |
| AEHT | ≤ 0.2 |
| IRCC | ≤ 0.2 |
| KYWL | ≤ 0.2 |
| DFHG | ≤ 0.2 |
| HVWT | ≤ 0.2 |
| RNFG | ≤ 0.2 |
| KRES | 0.264 |
| AGHS | ≤ 0.2 |
| KPTY | ≤ 0.2 |
| NPQV | ≤ 0.2 |
| WAHC | ≤ 0.2 |
| LSYS | ≤ 0.2 |
| DYVG | ≤ 0.2 |
| AFKG | ≤ 0.2 |
| SFTG | ≤ 0.2 |

| Variant | one-hybrid fitness for binding NBS DNA |
| --- | --- |
| ENPL | ≤ 0.2 |
| HVLW | ≤ 0.2 |
| SMTT | ≤ 0.2 |
| FRLY | ≤ 0.2 |
| YIYC | ≤ 0.2 |
| ALWR | ≤ 0.2 |
| QHDM | ≤ 0.2 |
| RVCR | 0.436 |
| AVMR | ≤ 0.2 |
| HKSD | ≤ 0.2 |
| TPLK | ≤ 0.2 |
| STPA | ≤ 0.2 |
| GPKC | ≤ 0.2 |
| KRND | ≤ 0.2 |
| RPPM | ≤ 0.2 |
| MPQC | ≤ 0.2 |
| YHSP | ≤ 0.2 |
| QFYT | ≤ 0.2 |
| PSTV | ≤ 0.2 |
| DGNS | ≤ 0.2 |
| DCGS | ≤ 0.2 |
| SVKV | ≤ 0.2 |
| APPK | ≤ 0.2 |
| STKD | ≤ 0.2 |

| Variant | one-hybrid fitness for binding NBS DNA |
| --- | --- |
| FVES | ≤ 0.2 |
| DGGD | ≤ 0.2 |
| DKKW | ≤ 0.2 |
| NFRR | ≤ 0.2 |
| GYKC | ≤ 0.2 |
| FHTY | ≤ 0.2 |
| HALY | ≤ 0.2 |
| KTEC | ≤ 0.2 |
| PTVQ | ≤ 0.2 |
| VASC | ≤ 0.2 |
| KRMP | ≤ 0.2 |
| MERN | ≤ 0.2 |
| LSDM | ≤ 0.2 |
| YMAT | ≤ 0.2 |
| RDTQ | ≤ 0.2 |
| FCCG | ≤ 0.2 |
| VKME | ≤ 0.2 |
| CTFA | ≤ 0.2 |
| NGDV | ≤ 0.2 |
| RYQC | ≤ 0.2 |
| FTML | ≤ 0.2 |
| NESY | ≤ 0.2 |
| ITWV | ≤ 0.2 |
| SWKQ | ≤ 0.2 |

| Variant | one-hybrid fitness for binding NBS DNA |
| --- | --- |
| QSNI | ≤ 0.2 |
| VHTW | ≤ 0.2 |
| RGGA | ≤ 0.2 |
| FKIV | ≤ 0.2 |
| QLAQ | ≤ 0.2 |
| YQFS | ≤ 0.2 |
| RTIW | ≤ 0.2 |
| YRTS | ≤ 0.2 |
| CDHT | ≤ 0.2 |
| QDRD | ≤ 0.2 |
| VDEA | ≤ 0.2 |
| HQYR | ≤ 0.2 |
| FFPS | ≤ 0.2 |
| ESHA | ≤ 0.2 |
| VPPR | ≤ 0.2 |
| QNWW | ≤ 0.2 |
| RIIL | ≤ 0.2 |
| CTYA | ≤ 0.2 |
| PSMC | ≤ 0.2 |
| KGRA | ≤ 0.2 |
| TWTT | ≤ 0.2 |
| NMSF | ≤ 0.2 |
| CLQG | ≤ 0.2 |
| VRLT | ≤ 0.2 |

| Variant | one-hybrid fitness for binding NBS DNA |
| --- | --- |
| AQNC | ≤ 0.2 |
| PRWF | ≤ 0.2 |
| RHWV | ≤ 0.2 |
| YPLY | ≤ 0.2 |
| HRRT | 0.311 |
| QVFK | ≤ 0.2 |
| EELW | ≤ 0.2 |
| TVRP | ≤ 0.2 |
| QAYD | ≤ 0.2 |
| QHRA | 0.533 |
| GGWM | ≤ 0.2 |
| KQRV | ≤ 0.2 |
| RPSC | ≤ 0.2 |
| TIDG | ≤ 0.2 |
| MQVR | ≤ 0.2 |
| SHKA | ≤ 0.2 |
| WTPV | ≤ 0.2 |
| LISC | ≤ 0.2 |
| YKGV | ≤ 0.2 |
| PQDS | ≤ 0.2 |
| SYDY | ≤ 0.2 |
| FGVA | ≤ 0.2 |
| FNTL | ≤ 0.2 |
| HNRR | ≤ 0.2 |

| Variant | one-hybrid fitness for binding NBS DNA |
| --- | --- |
| THKV | ≤ 0.2 |
| CRLR | ≤ 0.2 |
| QDNV | ≤ 0.2 |
| RLNW | ≤ 0.2 |
| CCGS | ≤ 0.2 |
| PVAR | ≤ 0.2 |
| YWTC | ≤ 0.2 |
| RNTA | ≤ 0.2 |
| TTSI | ≤ 0.2 |
| RNDT | ≤ 0.2 |
| DPHA | ≤ 0.2 |
| QEFS | ≤ 0.2 |
| RTYN | ≤ 0.2 |
| KSGG | ≤ 0.2 |
| MTEI | ≤ 0.2 |
| AYRV | ≤ 0.2 |
| PSKC | ≤ 0.2 |
| QRMK | 0.404 |
| TNVQ | ≤ 0.2 |
| KYYW | ≤ 0.2 |
| LILS | ≤ 0.2 |
| CNRC | ≤ 0.2 |
| TNLG | ≤ 0.2 |
| QRGH | 0.616 |

| Variant | one-hybrid fitness for binding NBS DNA |
| --- | --- |
| PRKA | ≤ 0.2 |
| HHPD | ≤ 0.2 |
| QYHD | ≤ 0.2 |
| MKCR | ≤ 0.2 |
| KWGT | ≤ 0.2 |
| NTMC | ≤ 0.2 |
| DTAT | ≤ 0.2 |
| YRME | ≤ 0.2 |
| RFKD | ≤ 0.2 |
| TVHV | ≤ 0.2 |
| RSQT | 0.418 |
| SHVR | ≤ 0.2 |
| KHGT | ≤ 0.2 |
| SQFA | ≤ 0.2 |
| NYGS | ≤ 0.2 |
| YHHR | ≤ 0.2 |
| YMCW | ≤ 0.2 |
| RERN | ≤ 0.2 |
| YTWR | ≤ 0.2 |
| FGRY | ≤ 0.2 |
| QFTY | ≤ 0.2 |
| PWNN | ≤ 0.2 |
| QRFA | 0.494 |
| ANYG | ≤ 0.2 |

| Variant | one-hybrid fitness for binding NBS DNA |
| --- | --- |
| DDLL | ≤ 0.2 |
| SLAL | ≤ 0.2 |
| YFQG | ≤ 0.2 |
| VLCS | ≤ 0.2 |
| HSPK | ≤ 0.2 |
| KAFS | ≤ 0.2 |
| TTKG | ≤ 0.2 |
| YVRE | ≤ 0.2 |
| WPVR | ≤ 0.2 |
| QRQN | 0.402 |
| LHFT | ≤ 0.2 |
| DALI | ≤ 0.2 |
| TMKI | ≤ 0.2 |
| YHGG | ≤ 0.2 |
| PQYV | ≤ 0.2 |
| GVSS | ≤ 0.2 |
| RELT | ≤ 0.2 |
| LSWG | ≤ 0.2 |
| NCMR | ≤ 0.2 |
| VDMG | ≤ 0.2 |
| MKNF | ≤ 0.2 |
| QGDC | ≤ 0.2 |
| IRTM | ≤ 0.2 |
| DLTM | ≤ 0.2 |

| Variant | one-hybrid fitness for binding NBS DNA |
| --- | --- |
| AKES | ≤ 0.2 |
| NSRM | ≤ 0.2 |
| CDCT | ≤ 0.2 |
| YEET | ≤ 0.2 |
| MNQC | ≤ 0.2 |
| KQGG | ≤ 0.2 |
| NTGI | ≤ 0.2 |
| SGMQ | ≤ 0.2 |
| MTLA | ≤ 0.2 |
| LRCY | ≤ 0.2 |
| QHTV | ≤ 0.2 |
| SHKR | ≤ 0.2 |
| IQRC | ≤ 0.2 |
| QHVG | ≤ 0.2 |
| NKLE | ≤ 0.2 |
| WPLT | ≤ 0.2 |
| SLCR | ≤ 0.2 |
| YIYL | ≤ 0.2 |
| QRER | 0.637 |
| VIYR | ≤ 0.2 |
| DDED | ≤ 0.2 |
| VTFW | ≤ 0.2 |
| HSMC | ≤ 0.2 |
| QLAY | ≤ 0.2 |

| Variant | one-hybrid fitness for binding NBS DNA |
| --- | --- |
| QMLV | ≤ 0.2 |
| IWGG | ≤ 0.2 |
| DSFP | ≤ 0.2 |
| WIIG | ≤ 0.2 |
| RNTT | 0.215 |
| DCPT | ≤ 0.2 |
| CNAR | ≤ 0.2 |
| LPCD | ≤ 0.2 |
| HMLR | ≤ 0.2 |
| RLIQ | ≤ 0.2 |
| HVYR | ≤ 0.2 |
| ECCR | ≤ 0.2 |
| RRYK | 0.202 |
| FRCS | ≤ 0.2 |
| MSSL | ≤ 0.2 |
| LSMT | ≤ 0.2 |
| GWHC | ≤ 0.2 |
| NKIM | ≤ 0.2 |
| SLIC | ≤ 0.2 |
| TSEI | ≤ 0.2 |
| TWMT | ≤ 0.2 |
| QTVA | 0.317 |
| HYNV | ≤ 0.2 |
| AVGV | ≤ 0.2 |

| Variant | one-hybrid fitness for binding NBS DNA |
| --- | --- |
| DGDC | ≤ 0.2 |
| PSYT | ≤ 0.2 |
| YKIR | ≤ 0.2 |
| VSGG | ≤ 0.2 |
| IQAG | ≤ 0.2 |
| KQTA | ≤ 0.2 |
| HNHC | ≤ 0.2 |
| PLRE | ≤ 0.2 |
| RVMR | 0.32 |
| KRRY | 0.351 |
| RTPR | 0.208 |
| YRRT | 0.296 |
| SVHS | ≤ 0.2 |
| RKKT | 0.691 |
| DGHN | ≤ 0.2 |
| SPWT | ≤ 0.2 |
| PLTD | ≤ 0.2 |
| PSSG | ≤ 0.2 |
